# According to the supplement of paper PMC8728848:
# The list shows a part of the results.
# B1: OVGAL11 (Ovis aries), AAF64320 (protein)
# chain: MDSLPNPYLQSVSLTVCYMVKIKANLLSAFGKNPELQVDFGTGTGQGGNIPFRFWYCDGMVVMNTFTDGSWQKEEKVLTDAFVPGQPFELQFLVLEKEYQVFVKNKPICQFAHRLPLQSVKMLDVRGDIVLTSVDTL
# Assays:
# Assay in all cases: glycan array binding signal (z-score within array); higher = stronger binding
# Conditions in all cases: glycan notation: IUPAC condensed, linker removed
# [1] = biological target: Fuc(a1-2)[Gal(a1-3)]Gal(b1-3)GlcNAc(b1-6)GalNAc
# Procedure, shortened: (§1)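 Glycan array data were curated from 3228 arrays in the Consortium for Functional Glycomics database and kept only where the protein sequence was available. Glycan names were converted to IUPAC-condensed notation, and columns mapping to the same glycan were averaged. The binding signal is a within-array Z-score, averaged across arrays of the same protein sequence at different concentrations or buffers and across linkers. Negative Z-scores can be read as non-binding.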
# [2] = biological target: Fuc(a1-2)[Gal(a1-3)]Gal(b1-4)Glc
# Procedure, shortened: as §1
# [3] = biological target: Fuc(a1-2)[Gal(a1-3)]Gal(b1-4)GlcNAc
# Procedure, shortened: as §1
# [4] = biological target: Fuc(a1-2)[Gal(a1-3)]Gal(b1-4)GlcNAc(b1-2)Man
# Procedure, shortened: as §1
# [5] = biological target: Fuc(a1-2)[Gal(a1-3)]Gal(b1-4)GlcNAc(b1-2)Man(a1-3)[Fuc(a1-2)[Gal(a1-3)]Gal(b1-4)GlcNAc(b1-2)Man(a1-6)]Man(b1-4)GlcNAc(b1-4)GlcNAc
# Procedure, shortened: as §1
# [6] = biological target: Fuc(a1-2)[Gal(a1-3)]Gal(b1-4)GlcNAc(b1-2)Man(a1-3)[Fuc(a1-2)[Gal(a1-3)]Gal(b1-4)GlcNAc(b1-2)Man(a1-6)]Man(b1-4)GlcNAc(b1-4)[Fuc(a1-6)]GlcNAc
# Procedure, shortened: as §1
# [7] = biological target: Fuc(a1-2)[Gal(a1-3)]Gal(b1-4)GlcNAc(b1-3)GalNAc
# Procedure, shortened: as §1
# [8] = biological target: Fuc(a1-2)[Gal(a1-3)]Gal(b1-4)GlcNAc(b1-3)[Fuc(a1-2)[Gal(a1-3)]Gal(b1-4)GlcNAc(b1-6)]GalNAc
# Procedure, shortened: as §1
# [9] = biological target: Fuc(a1-2)[Gal(a1-3)]Gal(b1-4)GlcNAc(b1-6)GalNAc
# Procedure, shortened: as §1
# [10] = biological target: Fuc(a1-2)[Gal(a1-3)]Gal(b1-4)[Fuc(a1-3)]Glc
# Procedure, shortened: as §1
# [11] = biological target: Fuc(a1-2)[Gal(a1-3)]Gal(b1-4)[Fuc(a1-3)]GlcNAc
# Procedure, shortened: as §1
# [12] = biological target: Fuc(a1-2)[Gal(a1-3)]Gal(b1-4)[Fuc(a1-3)]GlcNAc(b1-3)GalNAc
# Procedure, shortened: as §1
# [13] = biological target: Fuc(a1-2)[Gal(a1-4)]Gal(b1-4)GalNAc
# Procedure, shortened: as §1
# [14] = biological target: Fuc(a1-2)[Gal(a1-4)]Gal(b1-4)GlcNAc
# Procedure, shortened: as §1
# [15] = biological target: Fuc(a1-2)[GalNAc(a1-3)]Gal
# Procedure, shortened: as §1
# [16] = biological target: Fuc(a1-2)[GalNAc(a1-3)]Gal(b1-3)GalNAc(a1-3)[Fuc(a1-2)]Gal(b1-4)GlcNAc
# Procedure, shortened: as §1
# [17] = biological target: Fuc(a1-2)[GalNAc(a1-3)]Gal(b1-3)GalNAc(b1-3)Gal(a1-4)Gal(b1-4)Glc
# Procedure, shortened: as §1
# [18] = biological target: Fuc(a1-2)[GalNAc(a1-3)]Gal(b1-3)GlcNAc
# Procedure, shortened: as §1
# [19] = biological target: Fuc(a1-2)[GalNAc(a1-3)]Gal(b1-3)GlcNAc(b1-2)Man(a1-3)[Fuc(a1-2)[GalNAc(a1-3)]Gal(b1-3)GlcNAc(b1-2)Man(a1-6)]Man(b1-4)GlcNAc(b1-4)GlcNAc
# Procedure, shortened: as §1
# [20] = biological target: Fuc(a1-2)[GalNAc(a1-3)]Gal(b1-3)GlcNAc(b1-2)Man(a1-3)[Fuc(a1-2)[GalNAc(a1-3)]Gal(b1-3)GlcNAc(b1-2)Man(a1-6)]Man(b1-4)GlcNAc(b1-4)[Fuc(a1-6)]GlcNAc
# Procedure, shortened: as §1
# [21] = biological target: Fuc(a1-2)[GalNAc(a1-3)]Gal(b1-3)GlcNAc(b1-3)GalNAc
# Procedure, shortened: as §1
# [22] = biological target: Fuc(a1-2)[GalNAc(a1-3)]Gal(b1-3)GlcNAc(b1-6)GalNAc
# Procedure, shortened: as §1
# [23] = biological target: Fuc(a1-2)[GalNAc(a1-3)]Gal(b1-4)Glc
# Procedure, shortened: as §1
# [24] = biological target: Fuc(a1-2)[GalNAc(a1-3)]Gal(b1-4)GlcNAc
# Procedure, shortened: as §1
# [25] = biological target: Fuc(a1-2)[GalNAc(a1-3)]Gal(b1-4)GlcNAc(b1-2)Man
# Procedure, shortened: as §1
# [26] = biological target: Fuc(a1-2)[GalNAc(a1-3)]Gal(b1-4)GlcNAc(b1-2)Man(a1-3)[Fuc(a1-2)[GalNAc(a1-3)]Gal(b1-4)GlcNAc(b1-2)Man(a1-6)]Man(b1-4)GlcNAc(b1-4)GlcNAc
# Procedure, shortened: as §1
# [27] = biological target: Fuc(a1-2)[GalNAc(a1-3)]Gal(b1-4)GlcNAc(b1-2)Man(a1-3)[Fuc(a1-2)[GalNAc(a1-3)]Gal(b1-4)GlcNAc(b1-2)Man(a1-6)]Man(b1-4)GlcNAc(b1-4)[Fuc(a1-6)]GlcNAc
# Procedure, shortened: as §1
# [28] = biological target: Fuc(a1-2)[GalNAc(a1-3)]Gal(b1-4)GlcNAc(b1-3)Gal(b1-4)GlcNAc
# Procedure, shortened: as §1
# [29] = biological target: Fuc(a1-2)[GalNAc(a1-3)]Gal(b1-4)GlcNAc(b1-3)Gal(b1-4)GlcNAc(b1-3)Gal(b1-4)GlcNAc
# Procedure, shortened: as §1
# [30] = biological target: Fuc(a1-2)[GalNAc(a1-3)]Gal(b1-4)GlcNAc(b1-3)GalNAc
# Procedure, shortened: as §1
# [31] = biological target: Fuc(a1-2)[GalNAc(a1-3)]Gal(b1-4)GlcNAc(b1-3)[Fuc(a1-2)[GalNAc(a1-3)]Gal(b1-4)GlcNAc(b1-6)]GalNAc
# Procedure, shortened: as §1
# [32] = biological target: Fuc(a1-2)[GalNAc(a1-3)]Gal(b1-4)GlcNAc(b1-6)GalNAc
# Procedure, shortened: as §1
# [33] = biological target: Fuc(a1-2)[GalNAc(a1-3)]Gal(b1-4)[Fuc(a1-3)]GlcNAc
# Procedure, shortened: as §1
# [34] = biological target: Fuc(a1-2)[GalNAc(a1-3)]Gal(b1-4)[Fuc(a1-3)]GlcNAc(b1-3)GalNAc
# Procedure, shortened: as §1
# [35] = biological target: Fuc(a1-2)[GalNAc(a1-4)]Gal(b1-4)GlcNAc
# Procedure, shortened: as §1
# [36] = biological target: Fuc(a1-2)[GalNAc(b1-3)]Gal
# Procedure, shortened: as §1
# Fuc(a1-3)GlcNAc = biological target: Fuc(a1-3)GlcNAc
# Procedure, shortened: as §1
# [37] = biological target: Fuc(a1-3)[Gal(b1-4)]Glc6S
# Procedure, shortened: as §1
# [38] = biological target: Fuc(a1-3)[Gal(b1-4)]GlcNAc
# Procedure, shortened: as §1
# [39] = biological target: Fuc(a1-3)[Gal(b1-4)]GlcNAc(b1-2)Man
# Procedure, shortened: as §1
# [40] = biological target: Fuc(a1-3)[Gal(b1-4)]GlcNAc(b1-2)Man(a1-3)[Fuc(a1-3)[Gal(b1-4)]GlcNAc(b1-2)Man(a1-6)]Man(b1-4)GlcNAc(b1-4)GlcNAc
# Procedure, shortened: as §1
# [41] = biological target: Fuc(a1-3)[Gal(b1-4)]GlcNAc(b1-2)Man(a1-3)[Fuc(a1-3)[Gal(b1-4)]GlcNAc(b1-2)Man(a1-6)]Man(b1-4)GlcNAc(b1-4)[Fuc(a1-6)]GlcNAc
# Procedure, shortened: as §1
# [42] = biological target: Fuc(a1-3)[Gal(b1-4)]GlcNAc(b1-3)Gal(b1-3)[Fuc(a1-4)]GlcNAc
# Procedure, shortened: as §1
# [43] = biological target: Fuc(a1-3)[Gal(b1-4)]GlcNAc(b1-3)Gal(b1-4)[Fuc(a1-3)]GlcNAc
# Procedure, shortened: as §1
# [44] = biological target: Fuc(a1-3)[Gal(b1-4)]GlcNAc(b1-3)Gal(b1-4)[Fuc(a1-3)]GlcNAc(b1-3)Gal(b1-4)[Fuc(a1-3)]GlcNAc
# Procedure, shortened: as §1
# [45] = biological target: Fuc(a1-3)[Gal(b1-4)]GlcNAc(b1-3)GalNAc
# Procedure, shortened: as §1
# [46] = biological target: Fuc(a1-3)[Gal(b1-4)]GlcNAc(b1-4)Gal(b1-4)[Fuc(a1-3)]GlcNAc
# Procedure, shortened: as §1
# [47] = biological target: Fuc(a1-3)[Gal(b1-4)]GlcNAc(b1-4)Gal(b1-4)[Fuc(a1-3)]GlcNAc(b1-4)Gal(b1-4)[Fuc(a1-3)]GlcNAc
# Procedure, shortened: as §1
# [48] = biological target: Fuc(a1-3)[Gal(b1-4)]GlcNAc(b1-6)GalNAc
# Procedure, shortened: as §1
# [49] = biological target: Fuc(a1-3)[Gal(b1-4)]GlcNAc(b1-6)[Gal(b1-3)GlcNAc(b1-3)]Gal(b1-4)Glc
# Procedure, shortened: as §1
# [50] = biological target: Fuc(a1-3)[Gal(b1-4)]GlcNAc6S
# Procedure, shortened: as §1
# [51] = biological target: Fuc(a1-3)[Gal3S(b1-4)]Glc
# Procedure, shortened: as §1
# [52] = biological target: Fuc(a1-3)[Gal3S(b1-4)]GlcNAc
# Procedure, shortened: as §1
# [53] = biological target: Fuc(a1-3)[Gal3S(b1-4)]GlcNAc6S
# Procedure, shortened: as §1
# [54] = biological target: Fuc(a1-3)[GalNAc(b1-4)]Gal(b1-4)GlcNAc
# Procedure, shortened: as §1
# [55] = biological target: Fuc(a1-3)[GalNAc(b1-4)]GlcNAc
# Procedure, shortened: as §1
# [56] = biological target: Fuc(a1-3)[GalNAc(b1-4)]GlcNAc6S
# Procedure, shortened: as §1
# Fuc(a1-4)GlcNAc = biological target: Fuc(a1-4)GlcNAc
# Procedure, shortened: as §1
# Fuc(b1-3)GlcNAc = biological target: Fuc(b1-3)GlcNAc
# Procedure, shortened: as §1
# Gal(a1-2)Gal = biological target: Gal(a1-2)Gal
# Procedure, shortened: as §1
binder,measurement,setting,value
B1,glycan array binding signal (z-score),[1],-0.09
same,glycan array binding signal (z-score),[2],-0.199
same,glycan array binding signal (z-score),[3],0.2
same,glycan array binding signal (z-score),[4],-0.09
same,glycan array binding signal (z-score),[5],-0.025
same,glycan array binding signal (z-score),[6],-0.071
same,glycan array binding signal (z-score),[7],-0.115
same,glycan array binding signal (z-score),[8],-0.065
same,glycan array binding signal (z-score),[9],-0.075
same,glycan array binding signal (z-score),[10],-0.103
same,glycan array binding signal (z-score),[11],-0.101
same,glycan array binding signal (z-score),[12],-0.064
same,glycan array binding signal (z-score),[13],-0.089
same,glycan array binding signal (z-score),[14],-0.027
same,glycan array binding signal (z-score),[15],-0.03
same,glycan array binding signal (z-score),[16],-0.097
same,glycan array binding signal (z-score),[17],-0.086
same,glycan array binding signal (z-score),[18],-0.073
same,glycan array binding signal (z-score),[19],-0.071
same,glycan array binding signal (z-score),[20],-0.064
same,glycan array binding signal (z-score),[21],-0.082
same,glycan array binding signal (z-score),[22],-0.072
same,glycan array binding signal (z-score),[23],0.204
same,glycan array binding signal (z-score),[24],0.444
same,glycan array binding signal (z-score),[25],-0.118
same,glycan array binding signal (z-score),[26],-0.069
same,glycan array binding signal (z-score),[27],-0.088
same,glycan array binding signal (z-score),[28],-0.098
same,glycan array binding signal (z-score),[29],-0.076
same,glycan array binding signal (z-score),[30],-0.044
same,glycan array binding signal (z-score),[31],-0.1
same,glycan array binding signal (z-score),[32],-0.109
same,glycan array binding signal (z-score),[33],0.407
same,glycan array binding signal (z-score),[34],-0.067
same,glycan array binding signal (z-score),[35],0.101
same,glycan array binding signal (z-score),[36],-0.029
same,glycan array binding signal (z-score),Fuc(a1-3)GlcNAc,4.51
same,glycan array binding signal (z-score),[37],-0.102
same,glycan array binding signal (z-score),[38],-0.023
same,glycan array binding signal (z-score),[39],-0.096
same,glycan array binding signal (z-score),[40],-0.105
same,glycan array binding signal (z-score),[41],-0.028
same,glycan array binding signal (z-score),[42],-0.104
same,glycan array binding signal (z-score),[43],-0.045
same,glycan array binding signal (z-score),[44],-0.112
same,glycan array binding signal (z-score),[45],-0.106
same,glycan array binding signal (z-score),[46],-0.16
same,glycan array binding signal (z-score),[47],-0.141
same,glycan array binding signal (z-score),[48],0.122
same,glycan array binding signal (z-score),[49],-0.11
same,glycan array binding signal (z-score),[50],-0.049
same,glycan array binding signal (z-score),[51],-0.074
same,glycan array binding signal (z-score),[52],-0.245
same,glycan array binding signal (z-score),[53],-0.101
same,glycan array binding signal (z-score),[54],-0.315
same,glycan array binding signal (z-score),[55],-0.1
same,glycan array binding signal (z-score),[56],-0.085
same,glycan array binding signal (z-score),Fuc(a1-4)GlcNAc,-0.2
same,glycan array binding signal (z-score),Fuc(b1-3)GlcNAc,-0.153
same,glycan array binding signal (z-score),Gal(a1-2)Gal,0.223
